Measured values published in PubChem BioAssay AID493208 (National Center for Advancing Translational Sciences (NCATS), 2011).
Among all 44,000 compounds or so, about 340 (0.77%) were called active. Roughly 5% stayed inconclusive and do not appear here. The call rests on the fitted dose curve; in most records, active means well fitted inhibition curve with a large enough effect; inconclusive means small, poorly fitted or top-dose-only effect; inactive means flat fitted curve, though single readings scatter. Some of the results follow.

Experiment: Acumen qHTS Assay for Inhibitors of the mTORC1 Signaling Pathway in MEF (Tsc2-/-, p53-/-) Cells: Sytravon; further: nearly all actives have a fitted effect of over 50% in size;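 on activity change, negative = inhibition: plate controls were DMSO for no effect and rapamycin for full effect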
Conditions: phospho-rpS6 immunofluorescence/PI, 24 h; series mostly up to 38.3 µM; activity change, negative = inhibition: at the top concentration
How it was run: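 Cell-based qHTS: Tsc2-/- p53-/- MEF, 24 h cpd, 37 °C; fix/perm, anti-phospho-S6 Alexa-488 + PI; Acumen 488 nm scan; pS6/PI ratio, % positive cells; rapamycin 7.5 nM = inhibition ref; PI count = viability.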
Potency means the concentration at half of the fitted maximal effect.

SMILES	activity change, negative = inhibition	Potency
CCCc1cnc2c(c1SCC(=O)Nc1ccc([N+](=O)[O-])cc1)c(=O)n(C)c(=O)n2C	inactive: 0.358%	
Cc1ccc(Cl)cc1NC(=O)c1sc2nc(C)c(C)c(C)c2c1N	inactive: -7.84%	
CCOC(=O)c1ccccc1NC(=O)N(Cc1ccc(CC)cc1)Cc1cn[nH]c1-c1ccc(OC)cc1	inactive: -24.9%	
Cc1ccc(C2CC(=O)n3nc(-c4ccc(F)cc4)nc3S2)cc1 (centres undefined)	inactive: -0.82%	
COc1ccc(-n2nc(C(=O)NCCc3ccc(Cl)cc3)c3c4ccccc4n(C)c3c2=O)cc1	inactive: -4.75%	
Cc1ccc(NC(=O)Cn2c(=O)n(CCC(=O)N3CCc4ccccc4C3)c(=O)c3ccccc32)c(C)c1	inactive: -11.2%	
COc1ccc(C2c3c(-c4ccccc4)n[nH]c3C(=O)N2c2ccc(C(=O)O)cc2)c(OC)c1 (centres undefined)	inactive: 0.0987%	
COc1cc(NC(=O)Cn2c(-c3ccccc3)cc(C(C)=O)c2C)cc(OC)c1	inactive: 0.303%	
CN(Cc1ccccc1)C(=O)CSc1c2c(nc3ccc(Cl)cc13)CCCC2		active: 13.1 µM
Cc1ccc(-c2c(CN3CCN(c4cccc(C)c4C)CC3)csc2C)cc1	inactive: -4.73%	
CC(C)NC(=O)CCSc1nc(-c2ccc3c(c2)OCO3)cc(C(F)(F)F)n1	inactive: -7.23%	
Cc1cn2c(=O)cc(COc3ccc(C(C)(C)C)cc3)nc2s1	inactive: -3.61%	
CC(C)CCn1c(SCc2c(F)cccc2Cl)nc2ccsc2c1=O	inactive: -0.0365%	
O=C(Nc1ccc(F)c(Cl)c1)C1CCCN(S(=O)(=O)c2cccc3nsnc23)C1 (centres undefined)	inactive: 3.23%	
Nc1nonc1-c1nc2ccccc2n1CC(=O)Nc1ccccc1C(=O)O	inactive: -11.1%	
CCOc1ccccc1N(CC)C(=O)c1ccc2c(=O)n3c(nc2c1)CCCCC3	inactive: -0.151%	
N#Cc1ccccc1Cn1c(SCC(=O)NCc2ccccc2)nc2ccccc21	inactive: 0%	
CCOc1ccc(CCNC(=O)CSCc2nc(-c3cccc(C)c3)oc2C)cc1OCC	inactive: -2.9%	
CN(C)S(=O)(=O)N1CCC(N2CCN(Cc3ccc(F)cc3)C(=O)C2=O)CC1	inactive: 5.91%	
CCc1cccc2c(-c3ccccc3)nc(SCC(=O)Nc3ccc(OC)cc3)nc12	inactive: 1.89%	

SMILES	activity change, negative = inhibition	Potency
CCOc1ccc2nc(NC(=O)c3nc(SC(C)C)ncc3Cl)sc2c1	inactive: -2.27%	
CC1CCN(C(=O)Cn2c(=O)n(-c3ccc(Cl)cc3)c(=O)c3c4c(sc32)CCC4)CC1	inactive: -3.99%	
Cc1cc2nn(-c3ccccc3)nc2cc1NC(=O)Cc1ccc(Cl)cc1	inactive: 4.19%	
CC(C)N(Cc1ccccc1)S(=O)(=O)c1ccc(N2CCCCS2(=O)=O)cc1	inactive: 0%	
CN(C)S(=O)(=O)c1ccc(C(=O)N(Cc2cccnc2)c2nc3c(F)cc(F)cc3s2)cc1	inactive: -8.48%	
CC(=O)N1CCc2c(sc3c2c(=O)n(CCc2ccccc2)c(=O)n3Cc2ccc(F)cc2)C1	inactive: -0.754%	
CCOc1ccc(NC(=O)c2sc3nc(-c4ccc(OC)cc4)cn3c2C)cc1	inactive: -0.127%	
Cc1c(Cl)cccc1NC(=O)CSc1nc(=O)n(CCN2CCOCC2)c2c1CCC2	inactive: 0.114%	
CCc1ccc(-n2c(CCC(=O)O)ccc2-c2cccs2)cc1	inactive: -10.5%	
COc1ccc(-n2ccn(CC(=O)Nc3ccccc3C(F)(F)F)c(=O)c2=O)cc1OC	inactive: 8.25%	
COc1ccc(-c2nsc(NC(=O)c3ccccc3Br)n2)cc1	inactive: 4.3%	
COc1cc(NC(=O)C2CCCN(S(=O)(=O)c3cn(C)cn3)C2)cc(OC)c1 (centres undefined)	inactive: 0%	
CCOC(=O)c1cc2c(=O)n3ccccc3nc2n(CC(C)C)c1=NC(=O)C(C)Oc1ccccc1 (centres undefined)	inactive: 18.3%	
CC(=O)Nc1ccc(NCc2nnc3n2CCCCC3)cc1	inactive: 2.85%	
CCc1ccccc1NC(=O)CCc1c(C)nc2cc(-c3ccccc3)nn2c1C	inactive: -4.68%	
CCOc1ccc(NC(=O)CCS(=O)(=O)c2cc3c4c(c2)CCN4C(=O)CC3)cc1	inactive: -2.73%	
Cc1ccc(Nc2ccc(N3CCN(C(=O)c4ccc([N+](=O)[O-])cc4Cl)CC3)nn2)cc1	inactive: -6.09%	
Cc1nnc(N2CCN(C(=O)Nc3cc(F)ccc3F)CC2)c2nn(-c3ccc(Cl)cc3)c(C)c12	inactive: -10.7%	
O=C(NC1CC(=O)N(c2ccc(Cl)cc2)C1)C(=O)c1c[nH]c2ccccc12 (centres undefined)	inactive: -7.23%	
COc1cccc(NC(=O)c2sc3nc(N4CCOCC4)c4c(c3c2N)CC(C)(C)OC4)c1	inactive: 0.0754%	

SMILES	activity change, negative = inhibition	Potency
Cc1cccc(NC(=O)NCCn2c(=O)oc3ccc(C)cc32)c1	inactive: -3.31%	
Cc1oc2c(c1C(=O)NCc1cccc(Br)c1)C1=NCCN1C=N2	inactive: -7.69%	
COc1cc(NC(=O)C(CC(C)C)NS(=O)(=O)c2ccc3c(c2)CCCC(=O)N3)cc(OC)c1 (centres undefined)	inactive: 2.34%	
CCOC(=O)Cn1c(=O)n(CC2CCCO2)c2nc(-c3ccc(OC)cc3OC)nc(C(N)=O)c21 (centres undefined)	inactive: 4.39%	
Cc1ccc(CNC(=O)CCCn2c(=O)c3ccccc3n(CC(=O)C(C)(C)C)c2=O)cc1	inactive: -0.838%	
COc1ccc2oc(=O)c(-c3csc(/C(C#N)=C/c4ccc(F)cc4)n3)cc2c1	inactive: -8.17%	
COc1ccc(CNC(=O)CN(c2ccc(C)cc2)S(=O)(=O)c2c(C)n[nH]c2C)cc1	inactive: -7.61%	
CCOc1ccc(NC(=O)Cn2c(=O)n(-c3ccc(C)cc3)c(=O)c3cc(OC)c(OC)cc32)cc1	inactive: 6.21%	
COc1ccc(CNC(=O)c2cc3c(-c4ccccc4F)nn(C)c3s2)c(OC)c1	inactive: -5.33%	
COc1ccccc1N1CCN(C(=O)C2CCN(S(=O)(=O)c3cnc[nH]3)CC2)CC1	inactive: 0.0002%	
CCOC(=O)c1c(NC(C)=O)c2c3c(sc2n1Cc1nc(-c2ccccc2OCC)oc1C)CCCC3	inactive: -0.881%	
COc1cccc(NC(=O)Cn2cc(C(=O)C3CCCCC3)c3ccccc32)c1	inactive: -5.37%	
Cc1ccc(C)c(N2CCN(C(=O)c3cnc4c(-c5ccccc5)c(C)nn4c3C)CC2)c1	inactive: 7.13%	
Cc1ccc(/C=C(\C#N)C(=O)Nc2cc(C)ccc2C)cc1	inactive: -3.75%	
Cc1ccc(C)c(CN2C(=O)c3ccccc3S(=O)c3ccc(C(=O)NCc4ccccc4Cl)cc32)c1 (centres undefined)	inactive: 4.64%	
COc1cccc(CNC(=O)CN2C(=O)N(c3cc(C)ccc3C)S(=O)(=O)c3ccccc32)c1OC	inactive: -0.0246%	
O=C(Nc1ccc(-c2cc(C(F)(F)F)nn2-c2ccccc2)cc1)c1cccc(F)c1	inactive: 3%	
CCN(CC)c1ccc(C(=O)NCc2ccc3c(c2)CCN3C(=O)c2ccccc2)cc1	inactive: -6.53%	
Brc1ccccc1-n1ncc2c1ncn1nc(Cc3ccccc3)nc21	inactive: 0.683%	
